# Some of the results follow. Sequences were assembled here from the parent chain. Values near 0.05 are background.
# B1: TEV protease; numbered along this chain (parent)
# chain: MGESLFKGPRDYNPISSSICHLTNESDGHTTSLYGIGFGPFIITNKHLFRRNNGTLVVQSLHGVFKVKDTTTLQQHLVDGRDMIIIRMPKDFPPFPQKLKFREPQREERICLVTTNFQTKSMSSMVSDTSCTFPSGDGIFWKHWIQTKDGQCGSPLVSTRDGFIVGIHSASNFTNTNNYFTSVPKNFMELLTNQEAQQWVSGWRLNADSVLWGGHKVFMVKPEEPFQPVKEATQL
# Variants of: B1
# Test: raw area under fraction-flipped curve 0-4 h after induction (AUC4h, not background-subtracted), DNA-recorder readout of cleavage of the substrate (dimensionless); higher = more cleavage of the substrate by the protease variant
# Conditions: temperature: 34 °C; time window: 0-4 h after rhamnose induction
# 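Further: Bxb1 expression induced with 0.2% (w/v) L-rhamnose at OD600 near 0.5, cultures sampled hourly, flipped fraction per protease–substrate barcode pair counted by paired-end Illumina sequencing.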
Variant,area with substrate ENCYFQS,area with substrate ENDYFQS,area with substrate ENGYFQS,area with substrate ENHYFQS,area with substrate ENKYFQS,area with substrate ENMYFQS,area with substrate ENSYFQS,area with substrate ENEYFQS,area with substrate ENFYFQS,area with substrate ENTYFQS
MGESLFKGPRDYNPISSSICHLTNESDGHTTSLYGIGFGPFIITNKHLFRRNNGTLVVQSLHGVFKVKDTTTLQQHLVDGRDMIIIRMPKDFPPFPQKLKFREPQREERICLVTTNFQTKSMSSMVSDTSCTFPSGDGIFWKHWIQTKDGQCGSPLVSTRDGFIVGIHSASNFTNTNNYFTSVPKNFMELLTNQEAQQWVSGWRLNADSVNWGGHKVFMVKPEEPFQPVKEATQL [L211N],0.131,0.0698,0.067,0.0448,0.0829,0.0875,0.0551,–,–,–
MGESLFKGPRDYNPISSSICHLTNESDGHTTSLYGIGFGPFIITNKHLFRRNNGTLVVQSLHGVFKVKDTTTLQQHLVDGRDMIIIRMPKDFPPFPQKLKFREPQREERICLVTTNFQTKSMSSMVSDTSCTFPSGDGIFWKHWIQTKDGQCGSPLVSTRDGFIVGIHSASNFTNTNNYFTSVPKNFMELLTNQEAQQWVSGWRLNADSVLSGGHKVFMVKPEEPFQPVKEATQL [W212S],0.0603,–,–,0.0682,–,–,0.0851,0.0541,0.0755,0.0543
MGESLFKGPRDYNPISSSICHLTNESDGHTTSLYGIGFGPFIITNKHLFRRNNGTLVVQSLHGVFKVKDTTTLQQHLVDGRDMIIIRMPKDFPPFPQKLKFREPQREERICLVTTNFQTKSMSSMVSDTSCTFPSGDGIFWKHWIQTKDGQCGSPLVSTRDGFIVGIHSASNFTNTNNYFTSVPKNFMELLTNQEAQQWVSGWRLNADSVLWGEHKVFMVKPEEPFQPVKEATQL [G214E],0.0578,–,0.0563,–,–,0.0459,0.0755,–,0.057,0.0876
MGESLFKGPRDYNPISSSICHLTNESDGHTTSLYGIGFGPFIITNKHLFRRNNGTLVVQSLHGVFKVKDTTTLQQHLVDGRDMIIIRMPKDFPPFPQKLKFREPQREERICLVTTNFQTKSMSSMVSDTSCTFPSGDGIFWKHWIQTKDGQCGSPLVSTRDGFIVGIHSASNFTNTNNYFTSVPKNFMELLTNQEAQQWVSGWRLNADSVLWGGFKVFMVKPEEPFQPVKEATQL [H215F],0.0287,–,0.0589,0.0572,–,–,0.0802,0.0635,0.0551,–
MGESLFKGPRDYNPISSSICHLTNESDGHTTSLYGIGFGPFIITNKHLFRRNNGTLVVQSLHGVFKVKDTTTLQQHLVDGRDMIIIRMPKDFPPFPQKLKFREPQREERICLVTTNFQTKSMSSMVSDTSCTFPSGDGIFWKHWIQTKDGQCGSPLVSTRDGFIVGIHSASNFTNTNNYFTSVPKNFMELLTNQEAQQWVSGWRLNADSVLWGGHKVFMVKTEEPFQPVKEATQL [P222T],0.0563,0.0676,–,–,–,–,0.0552,–,0.059,0.055
MGESLFKGPRDYNPISSSICHLTNESDGHTTSLYGIGFGPFIITNKHLFRRNNGTLVVQSLHGVFKVKDTTTLQQHLVDGRDMIIIRMPKDFPPFPQKLKFREPQREERICLVTTNFQTKSMSSMVSDTSCTFPSGDGIFWKHWIQTKDGQCGSPLVSTRDGFIVGIHSASNFTNTNNYFTSVPKNFMELLTNQEAQQWVSGWRLNADSVLWGGHKVFMVKPEEPFQWVKEATQL [P228W],0.0735,–,–,–,–,–,0.0656,–,–,0.0508
MGESLFKGPRDYNPISSSICHLTNESDGHTTSLYGIGFGPFIITNKHLFRRNNGTLVVQSLHGVFKVKDTTTLQQHLVDGRDMIIIRMPKDFPPFPQKLKFREPQREERICLVTTNFQTKSMSSMVSDTSCTFPSGDGIFWKHWIQTKDGQCGSPLVSTRDGFIVGIHSASNFTNTNNYFTSVPKNFMELLTNQEAQQWVSGWRLNADSVLWGGHKVFMVKPEEPFQYVKEATQL [P228Y],0.0678,0.0481,–,–,0.0626,–,0.045,0.058,–,–
MGESLFKGPRDYNPISSSICHLTNESDGHTTSLYGIGFGPFIITNKHLFRRNNGTLVVQSLHGVFKVKDTTTLQQHLVDGRDMIIIRMPKDFPPFPQKLKFREPQREERICLVTTNFQTKSMSSMVSDTSCTFPSGDGIFWKHWIQTKDGQCGSPLVSTRDGFIVGIHSASNFTNTNNYFTSVPKNFMELLTNQEAQQWVSGWRLNADSVLWGGHKVFMVKPEEPFQPVAEATQL [K230A],0.0564,0.0856,–,–,–,0.0725,–,0.0359,–,0.0505
MGESLFKGPRDYNPISSSICHLTNESDGHTTSLYGIGFGPFIITNKHLFRRNNGTLVVQSLHGVFKVKDTTTLQQHLVDGRDMIIIRMPKDFPPFPQKLKFREPQREERICLVTTNFQTKSMSSMVSDTSCTFPSGDGIFWKHWIQTKDGQCGSPLVSTRDGFIVGIHSASNFTNTNNYFTSVPKNFMELLTNQEAQQWVSGWRLNADSVLWGGHKVFMVKPEEPFQPVKEATQC [L235C],0.0606,–,–,–,–,0.0789,0.0756,0.0635,–,–
MTESLFKGPRDYNPISSSICHLTNESDGHTTSLYGIGFGPFIITNKHLFRRNNGTLVVQSLHGVFKVKDTTTLQQHLVDGRDMIIIRMPKDFPPFPQKLKFREPQREERICLVTTNFQTKSMSSMVSDTSCTFPSGDGIFWKHWIQTKDGQCGSPLVSTRDGFIVGIHSASNFTNTNNYFTSVPKNFMELLTNQEAQQWVSGWRLNADSVLWGGHKVFMVKPEEPFQPVKEATQL [G2T],–,0.0428,–,–,–,0.121,–,0.0527,–,–

# Same assay, conditions: temperature: 34 °C; time window: 0-4 h after rhamnose induction
Variant,area with substrate ENNYFQS,area with substrate ENQYFQS,area with substrate ENRYFQS,area with substrate ENVYFQS,area with substrate ENPYFQS,area with substrate ENWYFQS,area with substrate ENYYFQS
MGESLFKGPRDYNPISSSICHLTNESDGHTTSLYGIGFGPFIITNKHLFRRNNGTLVVQSLHGVFKVKDTTTLQQHLVDGRDMIIIRMPKDFPPFPQKLKFREPQREERICLVTTNFQTKSMSSMVSDTSCTFPSGDGIFWKHWIQTKDGQCGSPLVSTRDGFIVGIHSASNFTNTNNYFTSVPKNFMELLTNQEAQQWVSGWRLNADSVLWGEHKVFMVKPEEPFQPVKEATQL [G214E],0.0762,0.0673,0.0825,0.0664,–,–,–
MGESLFKGPRDYNPISSSICHLTNESDGHTTSLYGIGFGPFIITNKHLFRRNNGTLVVQSLHGVFKVKDTTTLQQHLVDGRDMIIIRMPKDFPPFPQKLKFREPQREERICLVTTNFQTKSMSSMVSDTSCTFPSGDGIFWKHWIQTKDGQCGSPLVSTRDGFIVGIHSASNFTNTNNYFTSVPKNFMELLTNQEAQQWVSGWRLNADSVLWGGFKVFMVKPEEPFQPVKEATQL [H215F],0.0508,0.0598,–,–,–,–,–
MGESLFKGPRDYNPISSSICHLTNESDGHTTSLYGIGFGPFIITNKHLFRRNNGTLVVQSLHGVFKVKDTTTLQQHLVDGRDMIIIRMPKDFPPFPQKLKFREPQREERICLVTTNFQTKSMSSMVSDTSCTFPSGDGIFWKHWIQTKDGQCGSPLVSTRDGFIVGIHSASNFTNTNNYFTSVPKNFMELLTNQEAQQWVSGWRLNADSVLWGGHKVFMVKTEEPFQPVKEATQL [P222T],0.0501,–,–,0.0647,0.0631,0.053,0.0616
MGESLFKGPRDYNPISSSICHLTNESDGHTTSLYGIGFGPFIITNKHLFRRNNGTLVVQSLHGVFKVKDTTTLQQHLVDGRDMIIIRMPKDFPPFPQKLKFREPQREERICLVTTNFQTKSMSSMVSDTSCTFPSGDGIFWKHWIQTKDGQCGSPLVSTRDGFIVGIHSASNFTNTNNYFTSVPKNFMELLTNQEAQQWVSGWRLNADSVLWGGHKVFMVKPEEPFQWVKEATQL [P228W],–,–,0.058,0.0573,0.0675,–,–
MGESLFKGPRDYNPISSSICHLTNESDGHTTSLYGIGFGPFIITNKHLFRRNNGTLVVQSLHGVFKVKDTTTLQQHLVDGRDMIIIRMPKDFPPFPQKLKFREPQREERICLVTTNFQTKSMSSMVSDTSCTFPSGDGIFWKHWIQTKDGQCGSPLVSTRDGFIVGIHSASNFTNTNNYFTSVPKNFMELLTNQEAQQWVSGWRLNADSVLWGGHKVFMVKPEEPFQPVAEATQL [K230A],–,0.0554,–,–,–,–,–
MGESLFKGPRDYNPISSSICHLTNESDGHTTSLYGIGFGPFIITNKHLFRRNNGTLVVQSLHGVFKVKDTTTLQQHLVDGRDMIIIRMPKDFPPFPQKLKFREPQREERICLVTTNFQTKSMSSMVSDTSCTFPSGDGIFWKHWIQTKDGQCGSPLVSTRDGFIVGIHSASNFTNTNNYFTSVPKNFMELLTNQEAQQWVSGWRLNADSVLWGGHKVFMVKPEEPFQPVKEATQC [L235C],0.0839,0.0755,0.0762,0.0709,–,–,–

# Source: the supplement of paper PMC12217912
